{"source": "the supplement of paper PMC5499739", "note": "In all, about 16,000 sequences were measured (“Z-score”: median about -0.37, highest 2% from about 3.2 on). The list shows a part of the results."}
{"tested_on": "RBM10 RRM1-ZnF (GST-tagged construct)", "assay": "RNAcompete 7-mer binding Z-score; higher = stronger binding preference", "experimental": "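RNAcompete: 20 pmol GST-tagged RBM10 RNA-binding constructs were incubated with a designed RNA pool of about 241,000 sequences up to 41 nt (1.5 nmol) on glutathione beads for 30 min at 4 °C and washed. Bound RNAs were identified by microarray hybridisation. Each RNA 7-mer is scored by a one-sided Z-score of its enrichment, computed over probes that contain the 7-mer within longer pool sequences.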"}
{"sequence": "CGACAUC", "RNAcompete 7-mer binding Z-score": -0.733}
{"sequence": "CUACUUA", "RNAcompete 7-mer binding Z-score": -0.659}
{"sequence": "GAUGGUU", "RNAcompete 7-mer binding Z-score": 2.01}
{"sequence": "GAGGCCC", "RNAcompete 7-mer binding Z-score": -0.334}
{"sequence": "ACCGCAG", "RNAcompete 7-mer binding Z-score": -0.623}
{"sequence": "AACUAUA", "RNAcompete 7-mer binding Z-score": -0.655}
{"sequence": "GGACUGG", "RNAcompete 7-mer binding Z-score": 2.16}
{"sequence": "UGUUUGC", "RNAcompete 7-mer binding Z-score": -0.34}
{"sequence": "UUGACAG", "RNAcompete 7-mer binding Z-score": 0.16}
{"sequence": "AAGUGUU", "RNAcompete 7-mer binding Z-score": 0.17}
{"sequence": "CGUGAGA", "RNAcompete 7-mer binding Z-score": 0.319}
{"sequence": "CAUGGAG", "RNAcompete 7-mer binding Z-score": 1.48}
{"sequence": "CCUUCCU", "RNAcompete 7-mer binding Z-score": -0.795}
{"sequence": "GUAGCGU", "RNAcompete 7-mer binding Z-score": 0.0528}
{"sequence": "AGGAGAA", "RNAcompete 7-mer binding Z-score": 2.11}
{"sequence": "AUCCCGU", "RNAcompete 7-mer binding Z-score": -0.714}
{"sequence": "UUUCGAU", "RNAcompete 7-mer binding Z-score": -0.655}
{"sequence": "GAGCCUU", "RNAcompete 7-mer binding Z-score": -0.818}
{"sequence": "GCUGAAU", "RNAcompete 7-mer binding Z-score": -0.0382}
{"sequence": "UUGCCGC", "RNAcompete 7-mer binding Z-score": -0.662}
{"sequence": "UGACCAC", "RNAcompete 7-mer binding Z-score": -0.49}
{"sequence": "ACGGCUU", "RNAcompete 7-mer binding Z-score": -0.363}
{"sequence": "AGUAAAG", "RNAcompete 7-mer binding Z-score": 0.625}
{"sequence": "GGCAUGG", "RNAcompete 7-mer binding Z-score": 2.18}
{"sequence": "AAGAGCU", "RNAcompete 7-mer binding Z-score": -0.191}
{"sequence": "UGGCCGA", "RNAcompete 7-mer binding Z-score": -0.00246}
{"sequence": "CCGCGCA", "RNAcompete 7-mer binding Z-score": -0.405}
{"sequence": "GUCGCGG", "RNAcompete 7-mer binding Z-score": 0.923}
{"sequence": "GGCACCC", "RNAcompete 7-mer binding Z-score": 0.0203}
{"sequence": "CAUGCCA", "RNAcompete 7-mer binding Z-score": -0.707}
{"sequence": "AAUAAUA", "RNAcompete 7-mer binding Z-score": -0.409}
{"sequence": "CCAAACA", "RNAcompete 7-mer binding Z-score": -0.578}
{"sequence": "GUUCGCA", "RNAcompete 7-mer binding Z-score": -0.652}
{"sequence": "CCACAUU", "RNAcompete 7-mer binding Z-score": -0.834}
{"sequence": "UGUUAAG", "RNAcompete 7-mer binding Z-score": -0.0837}
{"sequence": "CUCGGGC", "RNAcompete 7-mer binding Z-score": -0.259}
{"sequence": "CUUGGCG", "RNAcompete 7-mer binding Z-score": -0.314}
{"sequence": "CGUGGUC", "RNAcompete 7-mer binding Z-score": 0.153}
{"sequence": "CAAAGCA", "RNAcompete 7-mer binding Z-score": -0.5}
{"sequence": "ACAAGGC", "RNAcompete 7-mer binding Z-score": 0.618}
{"sequence": "CCUUCUC", "RNAcompete 7-mer binding Z-score": -0.753}
{"sequence": "UUAACCU", "RNAcompete 7-mer binding Z-score": -0.798}
{"sequence": "CUCCAAG", "RNAcompete 7-mer binding Z-score": -0.613}
{"sequence": "UAACCGA", "RNAcompete 7-mer binding Z-score": -0.545}
{"sequence": "GACUAAC", "RNAcompete 7-mer binding Z-score": -0.626}
{"sequence": "CUUAAGG", "RNAcompete 7-mer binding Z-score": 0.316}
{"sequence": "UCAACGG", "RNAcompete 7-mer binding Z-score": 0.238}
{"sequence": "AUCCCGC", "RNAcompete 7-mer binding Z-score": -0.662}
{"sequence": "GUGGGCA", "RNAcompete 7-mer binding Z-score": 3.06}
{"sequence": "AUCUUAA", "RNAcompete 7-mer binding Z-score": -0.782}
{"sequence": "CUAGACG", "RNAcompete 7-mer binding Z-score": -0.35}
{"sequence": "UUUCAGG", "RNAcompete 7-mer binding Z-score": -0.035}
{"sequence": "UCUGAUU", "RNAcompete 7-mer binding Z-score": -0.88}
{"sequence": "ACUAUCG", "RNAcompete 7-mer binding Z-score": -0.503}
{"sequence": "CGUUGAC", "RNAcompete 7-mer binding Z-score": -0.438}
{"sequence": "UCUUCCC", "RNAcompete 7-mer binding Z-score": -0.73}
{"sequence": "GUUAUUA", "RNAcompete 7-mer binding Z-score": -0.0577}
{"sequence": "CAUGUAC", "RNAcompete 7-mer binding Z-score": -0.422}
{"sequence": "CUCGUGC", "RNAcompete 7-mer binding Z-score": -0.789}
{"sequence": "GCAGAAC", "RNAcompete 7-mer binding Z-score": 0.202}
{"sequence": "UGAAGGG", "RNAcompete 7-mer binding Z-score": 3.82}
{"sequence": "UGUUUAU", "RNAcompete 7-mer binding Z-score": -0.47}
{"sequence": "CGGCUAU", "RNAcompete 7-mer binding Z-score": -0.571}
{"sequence": "AACGCCG", "RNAcompete 7-mer binding Z-score": -0.565}
{"sequence": "CACGGUA", "RNAcompete 7-mer binding Z-score": 0.231}
{"sequence": "GCACGCA", "RNAcompete 7-mer binding Z-score": -0.0447}
{"sequence": "UCCGCGU", "RNAcompete 7-mer binding Z-score": -0.412}
{"sequence": "CAAGGUU", "RNAcompete 7-mer binding Z-score": 1.51}
{"sequence": "AAAUGAC", "RNAcompete 7-mer binding Z-score": -0.334}
{"sequence": "AAGUAAU", "RNAcompete 7-mer binding Z-score": -0.347}
{"sequence": "AACUACA", "RNAcompete 7-mer binding Z-score": -0.552}
{"sequence": "GAUCCCU", "RNAcompete 7-mer binding Z-score": -0.808}
{"sequence": "UCACCCA", "RNAcompete 7-mer binding Z-score": -0.724}
{"sequence": "ACCACGG", "RNAcompete 7-mer binding Z-score": 0.192}
{"sequence": "CUUCCCC", "RNAcompete 7-mer binding Z-score": -0.461}
{"sequence": "UUUGUAU", "RNAcompete 7-mer binding Z-score": -0.737}
{"sequence": "AAAAUGG", "RNAcompete 7-mer binding Z-score": 2.81}
{"sequence": "AUAAGGU", "RNAcompete 7-mer binding Z-score": 1.72}
{"sequence": "CCGUGAU", "RNAcompete 7-mer binding Z-score": -0.539}
{"sequence": "AAAAUUA", "RNAcompete 7-mer binding Z-score": -0.314}
{"sequence": "ACCACUC", "RNAcompete 7-mer binding Z-score": -0.62}
{"sequence": "UAAGACA", "RNAcompete 7-mer binding Z-score": -0.324}
{"sequence": "GCCGCCC", "RNAcompete 7-mer binding Z-score": -0.363}
{"sequence": "CCUUCCG", "RNAcompete 7-mer binding Z-score": -0.727}
{"sequence": "UAUGCGC", "RNAcompete 7-mer binding Z-score": -0.454}
{"sequence": "AGAUCUU", "RNAcompete 7-mer binding Z-score": -0.776}
{"sequence": "GGUCGAA", "RNAcompete 7-mer binding Z-score": 0.615}
{"sequence": "AACUCGC", "RNAcompete 7-mer binding Z-score": -0.724}
{"sequence": "GGUCAUC", "RNAcompete 7-mer binding Z-score": -0.0642}
{"sequence": "AACUAAA", "RNAcompete 7-mer binding Z-score": -0.399}
{"sequence": "UUCAAAG", "RNAcompete 7-mer binding Z-score": -0.467}
{"sequence": "UUAUGCU", "RNAcompete 7-mer binding Z-score": -0.828}
{"sequence": "ACCCCAG", "RNAcompete 7-mer binding Z-score": -0.435}
{"sequence": "AGGAGUA", "RNAcompete 7-mer binding Z-score": 1.5}
{"sequence": "CGACAAC", "RNAcompete 7-mer binding Z-score": -0.542}
{"sequence": "UCGUGUC", "RNAcompete 7-mer binding Z-score": -0.457}
{"sequence": "AUUUCCA", "RNAcompete 7-mer binding Z-score": -0.828}
{"sequence": "AGGUGGA", "RNAcompete 7-mer binding Z-score": 3.15}
{"sequence": "AACCCGC", "RNAcompete 7-mer binding Z-score": -0.678}
{"sequence": "CAAUAAC", "RNAcompete 7-mer binding Z-score": -0.62}
{"sequence": "CUGGUCA", "RNAcompete 7-mer binding Z-score": -0.519}
{"sequence": "AAAAUUU", "RNAcompete 7-mer binding Z-score": -0.552}
{"sequence": "AUUCAUU", "RNAcompete 7-mer binding Z-score": -0.613}
{"sequence": "UAUAUUU", "RNAcompete 7-mer binding Z-score": -0.714}
{"sequence": "CUAGCCU", "RNAcompete 7-mer binding Z-score": -0.733}
{"sequence": "CGCGAUC", "RNAcompete 7-mer binding Z-score": -0.753}
{"sequence": "UAAGCAC", "RNAcompete 7-mer binding Z-score": -0.467}
{"sequence": "CCUCACA", "RNAcompete 7-mer binding Z-score": -0.691}
{"sequence": "UUUGCCA", "RNAcompete 7-mer binding Z-score": -0.857}
{"sequence": "AAAUCUU", "RNAcompete 7-mer binding Z-score": -0.711}
{"sequence": "CCGCAGG", "RNAcompete 7-mer binding Z-score": 0.0138}
{"sequence": "AGGGCUU", "RNAcompete 7-mer binding Z-score": 0.16}
{"sequence": "AGUCAUU", "RNAcompete 7-mer binding Z-score": -0.548}
{"sequence": "UUCGACC", "RNAcompete 7-mer binding Z-score": -0.795}
{"sequence": "AGAAUAU", "RNAcompete 7-mer binding Z-score": -0.201}
{"sequence": "GACCGCA", "RNAcompete 7-mer binding Z-score": -0.802}
{"sequence": "CUCCGUG", "RNAcompete 7-mer binding Z-score": -0.597}
